# Measurements as given in PubChem BioAssay AID485344 (National Center for Advancing Translational Sciences (NCATS), 2010).
# In all, about 340,000 compounds went through this assay and about 6,900 (2%) were called active. Rule as the data show it: active = inhibition above about 30%; inactive = below that, where a call was filed. The list shows a part of the results, in another mix than the full data. The source gives no active or inactive call for entries shown without one.
# Molecular target: D(2) dopamine receptor (Homo sapiens) (UniProt P14416)
# UniProt P14416, sequence (P14416 whole entry, looked up): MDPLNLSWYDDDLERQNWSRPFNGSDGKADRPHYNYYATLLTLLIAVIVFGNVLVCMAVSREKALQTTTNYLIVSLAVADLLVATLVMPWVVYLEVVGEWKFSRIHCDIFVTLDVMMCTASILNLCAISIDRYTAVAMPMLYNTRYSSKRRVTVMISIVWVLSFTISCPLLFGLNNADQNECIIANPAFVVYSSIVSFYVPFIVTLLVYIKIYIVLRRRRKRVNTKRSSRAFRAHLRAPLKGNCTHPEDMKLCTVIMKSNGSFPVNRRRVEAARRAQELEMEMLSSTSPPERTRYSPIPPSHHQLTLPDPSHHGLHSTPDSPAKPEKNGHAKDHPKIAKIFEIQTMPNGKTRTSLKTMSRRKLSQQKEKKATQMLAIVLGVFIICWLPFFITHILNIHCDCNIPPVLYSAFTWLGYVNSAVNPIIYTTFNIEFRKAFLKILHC
# Test: HTS Assay for Allosteric Antagonists of the Human D2 Dopamine Receptor: Primary Screen for Antagonists; also: 0% is about no effect
# Conditions: HEK293 TREx D2 cells, calcium flux, dopamine EC80; at 10 µM; stronger effect = higher value
# How it was run: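 In this primary screen, negative modulation is detected by tracking calcium flux after an EC80 dopamine challenge in inducible HEK293 T-REx D2 cells preexposed to test compound for 180 s.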
row,Compound,inhibition
1,CCOC(=O)c1cnc2c(C)cc(Cl)cc2c1NCCc1ccc(OC)c(OC)c1,-5.35%
2,CCOC(=O)c1cc(-c2ccc(F)cc2)n(CCC(=O)NCc2ccccc2OC)c1C,7.94%
3,COc1ccc(NC(=O)C(C)n2c(C)c3cnn(-c4ccccc4)c(=O)c3c2C)cc1Cl (stereo not given),2.86%
4,COc1ccc(-c2cc(C(=O)N3CCN(c4ccc(F)cc4)CC3)no2)cc1OC,-1.73%
5,COC(=O)c1ccccc1NC(=O)CCc1c(C)nc2c(c(C)nn2-c2ccccc2)c1C,-0.107%
6,COc1cccc(CNC(=O)CCCn2nc(C)n3c(cc4sccc43)c2=O)c1,1.26%
7,COc1ccc(C2CC(=O)c3c([nH]c(C(=O)OC4CCCCCC4)c3C)C2)cc1OC (stereo not given),-1.01%
8,COc1ccc(-n2nnc(-c3nc(-c4ccccc4C)no3)c2N)cc1Cl,1.83%
9,CC1CCCCN1Cc1c(O)ccc2c(=O)c(-c3ccccc3)coc12 (stereo not given),3.25%
10,Cc1ccc(CNC(=O)c2sc3nc(-c4ccc(F)cc4)ccc3c2N)cc1,-12.3%
11,COc1cccc(CNS(=O)(=O)c2ccc(N3CCCCS3(=O)=O)cc2)c1,1.72%
12,CCOC(=O)C1=C(CN2CCCCC2)NC(=O)NC1c1ccc(C)cc1 (stereo not given),-0.617%
13,CCOc1ccc(C(CC(=O)Nc2cc(C)c(Cl)cc2OC)N2Cc3ccccc3C2=O)cc1OC (stereo not given),-3.9%
14,O=C(c1cccc(F)c1)N1CCC(c2c[nH]c3ccccc23)(c2c[nH]c3ccccc23)CC1,-4.63%
15,COc1ccc(C(=O)Nc2nnc(S(=O)(=O)N3CCC(C)CC3)s2)cc1OC,-4.82%
16,O=C(NC1CCCC1)c1cc(-c2ccccc2)on1,active: 37.6%
17,CCN(C(=O)C1CCCN(c2ncnc3onc(-c4ccc(F)cc4)c23)C1)c1ccccc1 (stereo not given),12.7%
18,O=C(NCC1CCCO1)c1c[nH]c2ccc(S(=O)(=O)Nc3ccc(F)cc3F)cc2c1=O (stereo not given),1.82%
19,CC(C)(C)c1ccc(-c2nc(S(=O)(=O)c3ccccc3)c(N3CCOCC3)o2)cc1,9.99%
20,CCOc1ccc(NC(=O)NCCn2nnc3cc(S(=O)(=O)N(C)C)ccc32)cc1,-7.56%

row,Compound,inhibition
1,CCc1cccc(NC(=O)Cn2c(=O)n(CCC(=O)NCC3CCCO3)c(=O)c3cc(OC)c(OC)cc32)c1 (stereo not given),8.04%
2,Cc1ccc(-c2nc3ncccc3o2)cc1NC(=O)c1ccccc1Br,-5.76%
3,Cc1ccc(CNC(=O)c2cc3c(s2)-c2ccc(Cl)cc2SC3)cc1,2.94%
4,CN(C)c1ccc(NC(=O)CN2CCN(CC(=O)Nc3ccc(Br)cc3)CC2)cc1,24.8%
5,Cc1ccc(CSC2=Nc3ccccc3C3=NC(CC(=O)NCc4cccs4)C(=O)N23)cc1 (stereo not given),-10.3%
6,CCOc1ccc(NC(=O)Cn2c(=O)n(Cc3ccc(C(=O)NCc4ccc(C)cc4)cc3)c(=O)c3ccccc32)cc1,-3.46%
7,COc1cccc(CNC(=O)CN2C(=O)COc3ccc(S(=O)(=O)N4CCCCCC4)cc32)c1,6.6%
8,Cc1nc2ccn(Cc3ccccc3)c(=O)c2cc1C(=O)NCc1ccccc1F,6.04%
9,COc1ccc(NC(=O)Nc2cccc(-c3cn4cccnc4n3)c2)cc1,-11.3%
10,Cc1cccc([N+](=O)[O-])c1NC(=O)COC(=O)c1nc2nccc(C)n2n1,active: 52.4%
11,O=C(NCCc1ccc(Cl)cc1)c1ccc2c(c1)N(Cc1ccccc1F)C(=O)c1ccccc1S2(=O)=O,14.7%
12,CC1CC(=O)N(CC(=O)Nc2ccc(F)cc2F)c2ccccc2S1 (stereo not given),4.73%
13,O=C(CCCn1ccc2cc(S(=O)(=O)N3CCCC3)ccc21)NCc1ccc(Cl)cc1,5.71%
14,CCc1ccc(C2CC(=O)NC(NC(=O)c3ccc(C(C)(C)C)cc3)=N2)cc1 (stereo not given),-8.26%
15,Cc1c(-c2ccccc2)c(=O)oc2c(CN3CCCC3)c(O)ccc12,-12.2%
16,CCOc1ccc(/C=C/c2nc(C#N)c(Nc3ccc(OCC)cc3)o2)cc1,-2.64%
17,Cn1c(=O)[nH]c(=O)c2c1nc(NCCO)n2CC(O)COc1ccccc1 (stereo not given),17.2%
18,CCOc1ccc(CCNC(=O)C2CCC(CNS(=O)(=O)c3ccc(Cl)cc3)CC2)cc1OCC (stereo not given),-4.56%
19,COc1cccc(-n2cc(C(=O)Nc3cc(C)c(Cl)cc3OC)c3ccccc3c2=O)c1,27.2%
20,CCOc1ccc(CNC(=O)C2CCN(c3nn4c(=O)cc(C)nc4s3)CC2)cc1,-4.25%

row,Compound,inhibition
1,CCOCCCNC(=O)c1cc2c(=O)[nH]c3ccccc3c2n1C,1.46%
2,COc1ccc(N(C(=O)COc2ccccc2OC)S(=O)(=O)c2ccc(Cl)cc2)cc1,6.78%
3,Cc1noc(C)c1S(=O)(=O)N1CCCC(C(=O)Nc2ccc(C(C)C)cc2)C1 (stereo not given),5.47%
4,CCc1ccccc1NC(=O)Nc1cc(C(=O)NCc2ccc(OC)cc2)ccc1N1CCCC1,7.82%
5,O=C(c1ccccc1)n1nc(-c2ccco2)nc1NCc1ccccc1Cl,4.33%
6,Cc1c(-c2ccc(Cl)cc2)c(=O)oc2c(CN3CCCC3)c(O)ccc12,7.6%
7,COc1ccc(N2CC(NC(=O)c3ccc(OC(C)C)cc3)CC2=O)cc1 (stereo not given),13.7%
8,OCCNCc1cc(Br)ccc1OCc1ccccc1Cl,active: 41.8%
9,COc1ccccc1CNC(=O)CN1C(=O)CCn2nc(-c3ccccc3)cc21,1.93%
10,COc1ccc(-c2nc3sc(CCNS(=O)(=O)c4ccc(F)c(C)c4)c(C)n3n2)cc1,-28.4%
11,Cc1ccc(OCC(=O)Nc2ccc3nc(Nc4cccc(Cl)c4)cc(C)c3c2)cc1,-10.4%
12,CCCNC(=O)Cn1nc(-c2ccc(C)c(C)c2)c2cnc3ccc(F)cc3c21,9.11%
13,Cc1ccc(C)c(CN2C(=O)CSc3ccc(C(=O)NCCc4ccc(Cl)cc4)cc32)c1,2.15%
14,Clc1ccc(CNc2cc(-c3ccccc3)nc3nncn23)cc1,24.1%
15,O=C(Nc1cccc(C(F)(F)F)c1)Nc1nnc(N2CCCCC2)s1,12.2%
16,COc1ccc(S(=O)(=O)Nc2cccc(-c3ccc(N4CCCC4)nn3)c2)cc1OC,12.3%
17,N#Cc1c(Nc2cccc(F)c2)sc(C(=O)c2ccc(Cl)cc2)c1N,9.33%
18,CCN(c1ccccc1)S(=O)(=O)c1ccc2[nH]cc(C(=O)NCc3ccc(C)cc3)c(=O)c2c1,5.02%
19,COc1ccc(/C=C/c2nc3ccccc3c(=O)n2-c2cccc(C(F)(F)F)c2)cc1,25.1%
20,CN(CC(=O)NCCN1CCN(c2ccccc2)CC1)S(=O)(=O)c1ccc2c(c1)CCC(=O)N2,active: 74.6%
